# Measured values from PubChem BioAssay AID1963320 (National Center for Advancing Translational Sciences (NCATS), 2024).
# The whole screen tested about 1,300 compounds, of which about 560 (43%) were called active. The set was probably picked from earlier hits. The shares of active, inactive and inconclusive entries below differ from those in the screen. The call rests on the fitted dose curve; in most records, active means well fitted inhibition curve with a large enough effect; inconclusive means small, poorly fitted or top-dose-only effect; inactive means flat fitted curve, though single readings scatter. Potencies beside an inconclusive call are fits to weak or partial responses and may not hold up.
# Target: Luciferin 4-monooxygenase (Photinus pyralis) (UniProt P08659)
# Assay: Firefly luciferase (FLuc-C-HiBiT) enzymatic inhibition screen - Functional assay
# Settings: purified FLuc-C-HiBiT enzyme, luciferin luminescence; series mostly up to 32.7 µM; activity change, negative = inhibition: at the top concentration
# Method in brief: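 Luminescence is read by CCD imager 5-10 min after adding 10 uM D-luciferin (KM) to 10 nM FLuc-C-HiBiT enzyme with 10 uM ATP. Compounds are preincubated with the enzyme for over 30 min at room temperature, protected from light.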
# Further: nearly all actives have a fitted effect of over 70% in size.
# On the % scale 0 is the no-effect control and ±100 the full control effect; potency means the concentration at half of the fitted maximal effect; tags describe the fitted curve by direction and shape.
# Chain of UniProt P08659 (P08659 whole entry, looked up): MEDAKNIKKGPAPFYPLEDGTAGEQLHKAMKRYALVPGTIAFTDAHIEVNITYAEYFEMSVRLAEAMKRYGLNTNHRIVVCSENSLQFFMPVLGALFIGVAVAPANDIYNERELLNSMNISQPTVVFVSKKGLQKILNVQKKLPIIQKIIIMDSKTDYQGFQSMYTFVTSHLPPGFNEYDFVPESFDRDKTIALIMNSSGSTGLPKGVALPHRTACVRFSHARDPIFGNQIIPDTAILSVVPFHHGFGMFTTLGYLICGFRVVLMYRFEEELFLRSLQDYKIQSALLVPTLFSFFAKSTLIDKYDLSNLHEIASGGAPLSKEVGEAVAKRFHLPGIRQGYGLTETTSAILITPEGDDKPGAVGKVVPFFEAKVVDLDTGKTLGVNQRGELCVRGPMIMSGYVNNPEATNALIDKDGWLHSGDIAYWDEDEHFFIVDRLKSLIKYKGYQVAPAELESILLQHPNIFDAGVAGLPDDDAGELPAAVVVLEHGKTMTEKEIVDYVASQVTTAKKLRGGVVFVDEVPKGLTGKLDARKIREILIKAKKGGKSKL
Structure (SMILES),Potency,"activity change, negative = inhibition"
Oc1ccccc1CN1CCNc2cc(Nc3ccccc3)ncc2C1,"inconclusive: 12.4 µM [inhibitor, partial curve]",–
Cc1oc(C(O)c2ccccc2F)nc1C(=O)Nc1ccc(N2CCOCC2)cc1 (configuration not stated),active: 16.1 µM,–
O=C1NCCCCCCN(Cc2ccncc2)[C@@H]2CN(C(=O)Nc3ccc4c(c3)OCCO4)CC[C@H]12,"inconclusive: 11.1 µM [inhibitor, partial curve]",–
C[C@H](C(=O)NCCN1CCOCC1)C1CC[C@@]2(C)Cc3sc(CSc4ccccc4)nc3[C@@H](C)[C@@H]2[C@H]1O (some centres not stated),"inconclusive: 12.4 µM [inhibitor, partial curve]",–
CNC(=O)c1cccc2c1CCN2C(=O)Nc1ccc(C)cc1,active: 0.351 µM,–
COc1cccc(OCc2nc3ccccc3n2Cc2ccccc2)c1,–,inactive: -15.8%
Cc1ccc(C2Cn3cnc(C(=O)N4CCC(C(=O)NCc5ccco5)CC4)c3CO2)cc1 (configuration not stated),"inconclusive: 8.81 µM [inhibitor, partial curve]",–
Cc1cccc(-c2cccc(NC(=O)C3CCCN(C(=O)CC(F)(F)F)C3)c2)c1 (configuration not stated),–,inactive: -6.66%
O=C(NC1CCN(c2cc(-c3ccc(F)cc3)[nH]n2)C1)c1cc2ccccc2[nH]1 (configuration not stated),"inconclusive: 6.24 µM [inhibitor, full curve]",–
Cc1ccc(NC(=O)N2CCC(CCNC(=O)C3CC3)CC2)cc1F,"inconclusive: 11.1 µM [inhibitor, partial curve]",–
O=C(O)c1cccc(-c2noc(-c3cccc(C(F)(F)F)c3)n2)c1,active: 0.0157 µM,–
C[C@H](C(=O)N1CCCC1)C1CC[C@@]2(C)Cc3sc(-c4ccccc4)nc3[C@@H](C)[C@@H]2[C@H]1O (some centres not stated),active: 1.97 µM,–
CCOC1CCCN(c2ncnc3c2cnn3-c2ccccc2)C1 (configuration not stated),"inconclusive: 9.89 µM [inhibitor, partial curve]",–
CC(=O)N[C@@H]1C=C[C@@H](c2c(C)nn(-c3ccc(C(F)(F)F)cc3)c2C)C1,"inconclusive: 16.1 µM [inhibitor, partial curve, poor fit]",–
O=C1Cc2c(-c3cccc4ccccc34)n[nH]c2CN1CCOc1ccccc1,"inconclusive: 18 µM [inhibitor, partial curve]",–
CC(C)C(=O)Nc1cc(-c2nc3ccccc3s2)ccc1Cl,–,inactive: 3.21%
COC(=O)[C@@H]1C[C@H](NC(=O)c2ccc(Oc3ccccc3)cc2)CN1C,"inconclusive: 15.7 µM [inhibitor, partial curve, poor fit]",–
COc1ccc(/C=C/c2ccc3c(c2)C(=O)N2CC[C@H](NC(=O)COCC(=O)O)[C@H]2C(=O)N3)cc1,active: 9.89 µM,–
COc1ccc(-c2cc(N3CCCC(NC(=O)c4cccc(OC)c4)C3)n[nH]2)cc1 (configuration not stated),"inconclusive: 7.85 µM [inhibitor, partial curve]",–
Cc1nccn1CCN(C)c1ccc(-c2nc(COc3ccccc3)no2)cn1,active: 9.89 µM,–
O=C(Nc1ncc(-c2ccccc2)c2c1OCC2)c1ccccc1,"inconclusive: 18 µM [inhibitor, partial curve]",–
Cn1c(C(=O)Nc2ccc3c(c2)OCO3)cc2c1CCN(Cc1cccc(F)c1)C2,–,inactive: -18.6%
CCCCN(C)S(=O)(=O)c1ccc(C(=O)Nc2ccc(-c3nc4ccc(C)cc4s3)cc2)cc1,–,inactive: -15%

Structure (SMILES),Potency,"activity change, negative = inhibition"
Cc1ccc(C(=O)Nc2ccc3oc(-c4ccccc4C)nc3c2)cc1,–,inactive: -0.83%
COCCNc1oc(-c2ccc(OC)cc2)nc1C#N,"inconclusive: 12.4 µM [inhibitor, partial curve, poor fit]",–
Cc1ccc(NC(=O)c2ccc3snnc3c2)cc1C,"inconclusive: 8.81 µM [inhibitor, partial curve]",–
COc1ccc(-c2nc3ccccc3s2)cc1NC(=O)c1ccc(F)cc1,–,inactive: -5.32%
Cc1ccc(NC(=O)c2oc3ccc4c(c3c2C)C(=O)CC(C)(C)O4)c(C)c1,"inconclusive: 9.89 µM [inhibitor, partial curve]",–
CCc1nc(-c2ccc(OC3CCN(C(=O)C4CC4)C3)cc2)no1 (configuration not stated),"inconclusive: 12.4 µM [inhibitor, partial curve]",–
O=C(N[C@H]1CCN2C(=O)c3cc(/C=C/c4ccc(O)cc4)ccc3NC(=O)[C@H]12)c1cnccn1,–,inactive: -13%
COc1ccc(C)cc1NC(=O)c1ccc2c(Cl)c3c(nc2c1)CCC3,"inconclusive: 1.11 µM [inhibitor, full curve]",–
COc1ccccc1C(=O)Nc1ccc(-c2nc3ccccc3s2)c(C)c1,"inconclusive: 9.89 µM [inhibitor, partial curve]",–
O=C(NCc1ccco1)Nc1cccc(-c2ccc(N3CCCC3)nn2)c1,"inconclusive: 9.89 µM [inhibitor, partial curve]",–
COCCNc1ncc(-c2cccc(NC(C)=O)c2)c2c1OCC2,"inconclusive: 16.1 µM [inhibitor, partial curve]",–
CN1Cc2ccc(C(=O)NCCOc3ccccc3)cc2OCC1=O,"inconclusive: 20.2 µM [inhibitor, single point]",–
Cc1ccc(Cl)cc1-n1nnc(-c2nsc(NC(=O)c3ccccc3Cl)n2)c1C,–,inactive: -5.57%
CNc1nc(C(=O)NCc2ccc3[nH]c(-c4ccc(F)cc4)c(C)c3c2)cs1,"inconclusive: 11.1 µM [inhibitor, partial curve]",–
CC(C)(CC(=O)O)CC(=O)N1Cc2[nH]cnc2C[C@H]1c1nc(Cc2ccccc2)no1,–,inactive: -2.49% [at 49.3 µM]
Cc1ncccc1C(=O)N1CCC(Oc2ccc(-c3noc(-c4ccccc4)n3)cc2)C1 (configuration not stated),"inconclusive: 11.1 µM [inhibitor, partial curve]",–
Cc1ccc(OCC(=O)Nc2cccc(C(=O)OCc3cc(=O)n4nc(C)sc4n3)c2)cc1,"inconclusive: 7 µM [inhibitor, partial curve]",–
Cc1cc(C)n(CCC(=O)N2CCC(Cc3noc(C4CC4)n3)C2)n1 (configuration not stated),–,inactive: 4.01%
Fc1cccc(-c2cnc(Nc3ccc(N4CCOCC4)cc3)c3c2CCO3)c1,"inconclusive: 16.1 µM [inhibitor, partial curve]",–
Clc1ccc(OCc2nc3ccccc3n2Cc2ccccc2)c(Cl)c1,"inconclusive: 7 µM [inhibitor, partial curve, poor fit]",–
COc1ccc(N2CCN(C(=O)c3noc(-c4ccc(C)cc4)n3)CC2)cc1,"inconclusive: 9.89 µM [inhibitor, partial curve]",–
O=C(Nc1cccc(F)c1)Nc1ccc2n(c1=O)C[C@H]1C[C@@H]2CN(C(=O)c2ccc(F)cc2)C1,"inconclusive: 7 µM [inhibitor, full curve]",–
CCCOc1cccc(C(=O)Nc2ccc(-c3nc4ccccc4s3)c(Cl)c2)c1,"inconclusive: 15.7 µM [inhibitor, partial curve, poor fit]",–

Structure (SMILES),Potency,"activity change, negative = inhibition"
O=C(c1ccncc1)N1CCC(Oc2ccc(-c3noc(-c4ccccc4)n3)cc2)C1 (configuration not stated),"inconclusive: 12.4 µM [inhibitor, partial curve]",–
CC(C)(O)CCc1ccc(C(=O)NCCSc2ccccn2)cc1,"inconclusive: 17.6 µM [inhibitor, single point]",–
Cc1[nH]nc2c1C(c1ccc(Cl)cc1)C(C#N)=C(N)O2 (configuration not stated),–,inactive: -8.64%
O=C(NCC(F)(F)F)C1CCCN1c1nc2ncccc2o1 (configuration not stated),–,inactive: 5.89% [at 49.3 µM]
O=C(O)[C@@H]1CN(Cc2ccccc2)C[C@@H]1C(=O)N1CCc2ccccc21,–,inactive: 1.2%
Cc1cccc(NC(=O)Nc2ccc(F)cc2)n1,"inconclusive: 12.4 µM [inhibitor, partial curve]",–
CC(=O)Nc1ccc(NC(=O)c2cc(-c3ccc4c(c3)OCCO4)on2)cc1,active: 0.624 µM,–
Cc1nn(-c2ccc(C(C)C)cc2)c(C)c1[C@@H]1C=C[C@@H](NC(=S)NCC(C)C)C1,"inconclusive: 28.6 µM [inhibitor, single point]",–
Cc1ccc(NC(=O)Nc2cccn3nc(C)nc23)cc1,"inconclusive: 11.1 µM [inhibitor, partial curve]",–
CCc1ccc(-n2nc(CO)c(C(=O)NC)n2)cc1,"inconclusive: 17.6 µM [inhibitor, partial curve]",–
CC(=O)NC1CCN(Cc2cn(-c3ccc(C)cc3)nc2-c2cccc(C)c2)C1 (configuration not stated),"inconclusive: 14 µM [inhibitor, partial curve, poor fit]",–
O=C1OCCN1CCNc1ccc(-c2nc(-c3ccccc3F)no2)cn1,"inconclusive: 12.4 µM [inhibitor, partial curve]",–
Cc1ccc(-n2nc(C)c([C@H]3C=C[C@@H](OC(=O)Nc4cccc(C(F)(F)F)c4)C3)c2C)cc1Cl,–,inactive: -9.25%
O=C(Nc1onc2c1CCCC2)c1ccccc1,"inconclusive: 11.1 µM [inhibitor, partial curve]",–
Fc1ccc(-n2ncc3c(N4CCC(Cc5ccccc5)CC4)ncnc32)cc1,–,inactive: 1.05%
COc1ccc(-c2cc(N3CCCC(NC(=O)c4ccc(OC)cc4OC)C3)n[nH]2)cc1 (configuration not stated),"inconclusive: 11.1 µM [inhibitor, partial curve, poor fit]",–
OC1(CN2CCCCC2)CCN(c2nc3ccccc3s2)C1 (configuration not stated),"inconclusive: 15.7 µM [inhibitor, partial curve, poor fit]",–
COc1ccc(OCC(=O)Nc2cc(-c3nc4ccccc4s3)ccc2C)cc1,"inconclusive: 12.4 µM [inhibitor, partial curve, poor fit]",–
COc1cccc(CC(=O)Nc2ccc(-c3nc4ccccc4s3)cc2)c1,"inconclusive: 8.81 µM [inhibitor, partial curve]",–
CN1CCCCCCN(C(=O)Nc2ccc3c(c2)OCCO3)CCC1=O,active: 9.89 µM,–
CCN1CCN(C(=O)Cn2c(C)ccc(NC(=O)Nc3ccc(C)cc3)c2=O)CC1,active: 4.95 µM,–
